Here are results for 81 compounds from ChEMBL document CHEMBL1201862, “PubChem BioAssay data set” (2004).

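Exposure lasted 48 hours, with cells grown in 96-well plates and compounds tested at five concentrations. GI50 is the concentration that inhibits growth by half.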 Activity calls are given as the source filed them. Cut-off read from the data, not from the text of the source: active = GI50 up to about 1.1 µM and inactive = higher.

The subject of this test is NCI-H322M. Put plainly: inhibition of tumour cell growth, NCI panel, 48 h.
On to `CC(C)O/N=C/c1cc(NC(=S)OC(C)C)ccc1Cl`, for which the GI50 was inactive: > 80.9 µM.
In the case of `O=P(O)(O)OC1O[C@H](CO)[C@H](O)[C@H](O)[C@H]1O` (stereo partly specified), the GI50 is inactive: > 100 µM.
Consider `O=S(=O)(c1ccc(Cl)cc1)c1ccccc1C1=NCCN1`, for which the GI50 was inactive: > 100 µM.
With `COc1cc(-c2ccc(Nc3ccccc3C(=O)O)c(OC)c2)ccc1Nc1ccccc1C(=O)O` the figure was inactive: 25.6 µM; with `CC(C)N1CSC(=S)N(Cc2ccccc2)C1`, inactive: > 10 µM; with `N#CC(C#N)=NNc1ccc2cn[nH]c2c1`, inactive: > 100 µM.
On to `Cc1nc2c(o1)/C(=N\c1ccccc1)c1ccccc1C2=O`, for which the GI50 is inactive: 15 µM.
On to `CC(NCCN(C)C)C1CCC2C3CCc4cc(O)ccc4C3CCC12C` (stereo unspecified), for which the GI50 is inactive: 4.02 µM.
As to `O=C(OCc1ccccc1)c1ccc(NCc2cc(O)ccc2O)cc1`, the GI50 is inactive: 8.77 µM.
In the case of `O=C1C(c2c(O)[nH]c3ccc(Br)cc23)=Nc2ccccc21` it was inactive: 10.6 µM.
In the case of `Clc1cccc2c1OCC1C(c3ccccc3)=NN(c3ccccc3)C21` (stereo unspecified), the GI50 was inactive: > 100 µM.
Consider `COC(=O)CN1c2nc(C#N)c(C#N)nc2N(CC(=O)OC)c2nc(C#N)c(C#N)nc21`, for which the GI50 is inactive: 14.9 µM.
On to `C[C@@]1(O)C[C@@H](N2C(=O)O[C@@H](c3ccccc3)[C@H]2c2ccccc2)[C@@H]1COCc1ccccc1`, for which the GI50 was inactive: 28.9 µM.
In the case of `Nc1ncnc2c1ncn2[C@@H]1C[C@H]1CO`, the GI50 was inactive: > 100 µM.
For `O=C(/C=C1\C[C@H]2C=Nc3ccccc3C(=O)N2C1)NCCCCNC(=O)/C=C1\C[C@H]2C=Nc3ccccc3C(=O)N2C1`, the GI50 is inactive: 17.3 µM.
For `CC1CCC2(OC1)OC1CC3C4CCC5CC(O)CCC5(C)C4CC(=O)OC3(C)C1C2C` (stereo unspecified), the GI50 was inactive: > 100 µM.
In the case of `CCOC(=O)/C(C#N)=C1\N[C@H](C(=O)OCC)CO1` it was inactive: > 100 µM; in that of `COc1c(N2CCCCC2)c2c(=O)c3ccccc3oc2c2cc(C)oc12`, inactive: 8.39 µM; in that of `N#CCCN(CCC#N)c1ccc(/C=C2\N=C(c3ccccc3)N(c3ccc(C(=O)O)cc3)C2=O)cc1`, inactive: 38.5 µM.
With `O=S(=O)(N1CCCCN(S(=O)(=O)C(F)(F)F)CCCN(S(=O)(=O)C(F)(F)F)CCCCN(S(=O)(=O)C(F)(F)F)CCCN(S(=O)(=O)C(F)(F)F)CCCCN(S(=O)(=O)C(F)(F)F)CCCN(S(=O)(=O)C(F)(F)F)CCCCN(S(=O)(=O)C(F)(F)F)CCC1)C(F)(F)F` the figure was inactive: > 31.6 µM; with `O=Cc1ccc2c(c1)CC1(Cc3ccccc3C1)C2`, inactive: 71.3 µM.
Take `COc1ccc(N2C(=O)C3c4[nH]c5ccc(OCc6ccccc6)cc5c4C4CCC(c5ccccc5)CC4C3C2=O)cc1` (stereo unspecified): the GI50 is inactive: > 100 µM.
For the compound `O=S(=O)(O)c1ccccc1/N=N\c1ccc(/N=N/c2c(O)ccc3ccccc23)c(S(=O)(=O)O)c1`, the GI50 was inactive: > 100 µM.
Consider `CN(C)/C=N\c1nc(=O)n(C2CCC(CO)O2)cc1F` (stereo unspecified), for which the GI50 was inactive: > 100 µM.
As to `O=C(O)C1C2CCC(O2)C1C(=O)Nc1cccc2cccnc12` (stereo unspecified), the GI50 is inactive: > 100 µM.
As to `O=C1CCCC/C1=C1\C(=O)Nc2cc(F)ccc21`, the GI50 was inactive: > 100 µM.
As for `Cc1ccc2[nH]c(=O)c(C(C#N)c3ccccc3)nc2c1` (stereo unspecified), the GI50 was inactive: 62.1 µM.
In the case of `Cc1ccc(S(=O)(=O)N/N=C2\CCCCCCCCCCC2CN(C)C)cc1` (stereo unspecified) it was inactive: 22.4 µM.
In the case of `COC(=O)c1nc2c3c(cccc3c1C(=O)OC)Nc1ccccc1-2` it was inactive: 57.4 µM; in that of `CC(C)(C)C1CCC2c3c([nH]c4ccccc34)C3C(=O)N(c4ccccc4)C(=O)C3C2C1` (stereo unspecified), inactive: 23.1 µM; in that of `O=C(C(=O)N1CC2C=CC1CC2)c1c[nH]c2ccccc12` (stereo unspecified), inactive: > 100 µM.
Regarding `COc1cccc(-c2nc(-c3cnccn3)n(COCCO)n2)c1`, the GI50 was inactive: > 100 µM.
Consider `CC[C@@]1(O)C(=O)OCc2c1cc1n(c2=O)Cc2c-1nc1ccccc1c2Cl`, for which the GI50 was active: 0.157 µM.
Regarding `CC(=O)CC(=O)N1CCOC1=O`, the GI50 was inactive: > 10 µM.
As for `c1nncn1C12C3C4C5C3C1C5C42` (stereo unspecified), the GI50 was inactive: > 100 µM.
As to `CCC/C=C\C=C\C1(NS(=O)(=O)c2ccc(C)cc2)CCC(C(C)(C)C)CC1` (stereo unspecified), the GI50 is inactive: 10.6 µM.
`CCCCCC(/C=C/c1ncccc1OCCCCCC(=O)O)=N\NC1=NCCN1`: the GI50 is inactive: > 100 µM.
Turning to `CCC(=O)Nc1nc2c(ncn2C2OC(COC(=O)CC)C(OC(=O)CC)C2OC(=O)CC)c(=O)[nH]1` (stereo unspecified), the GI50 was inactive: > 100 µM.
In the case of `COC12C=CC(CC1)C(C)(C)C2=O` (stereo unspecified), the GI50 was inactive: > 100 µM.
Regarding `O=C(O)c1ccccc1Cc1ccco1`, the GI50 is inactive: > 100 µM.
Consider `O=c1[nH]c2nccn2c(Cl)c1Br`, for which the GI50 was inactive: 21.6 µM.
For the compound `C/C=C(\N=C=S)C(=O)OC1C(COC(C)=O)OC([C@]2(O)CC(=O)C(N)=C(C(=O)O)C2=O)C(O)C1OC1CC(OC)C(O)([C@@H](C)OC(=O)[C@@H](C)CC)C(C)O1` (stereo partly specified), the GI50 was inactive: 18.8 µM.
For `CC(C)(C)NCc1cc(C(C)(C)C)cc(-c2ccc(Cl)cc2)c1O`, the GI50 is inactive: 13.6 µM.
In the case of `O=C1C=C(Nc2ccccc2C(=O)CC(=O)C(=O)Nc2ccc(Cl)cc2)c2ccccc2C1=O`, the GI50 is inactive: 14.9 µM.
Regarding `O=Nc1c(-c2cccc([N+](=O)[O-])c2)nc2cnccn12`, the GI50 is inactive: 18.7 µM.
Take `CC1=C(Cl)C[C@@H](/C(C)=C\Cl)O[C@@]1(O)C(Br)Br`: the GI50 was inactive: > 100 µM.
On to `Nc1ncnc2c1nnn2C1C=C(CO)C(O)C1O` (stereo unspecified), for which the GI50 is inactive: 43.5 µM.
For the compound `O=C(Nc1cc(Cl)c(Cl)cc1Cl)C(=O)C(C(=O)c1ccccc1)C1OC(=O)c2ccccc21` (stereo unspecified), the GI50 is inactive: > 100 µM.
In the case of `CN(C)CCNC(=O)c1cccc2[nH]c(-c3ccccn3)nc12`, the GI50 was inactive: 30.3 µM.
Turning to `O=c1cc(-c2ccccc2)c2cc3c(=O)ccoc3cc2o1`, the GI50 was inactive: > 100 µM.
For the compound `c1ccc(-c2cc(-c3ccccc3)nc(-c3ccncc3)c2)cc1`, the GI50 was inactive: > 100 µM.
Consider `CC(CC(=O)N1C(=O)C(C)(C)[C@@H](O)[C@H]1CC(C)C(Cl)(Cl)Cl)C(Cl)(Cl)Cl` (stereo partly specified), for which the GI50 is inactive: > 100 µM.
`O=C1C(Cl)N(c2ccccc2Cl)C1c1c[nH]c2ccccc12` (stereo unspecified): the GI50 was inactive: > 100 µM.
Take `O=C1C(Cl)C(c2cccc(O)c2)N1n1cnc2ccccc2c1=O` (stereo unspecified): the GI50 is inactive: > 100 µM.
For the compound `COC(=O)c1ccc(NCC2=CC(=O)c3ccccc3C2=O)cc1`, the GI50 is inactive: 16.9 µM.
Take `CN(CCN(C)Cc1ccc(Cl)c(Cl)c1)CCN1CCCC1`: the GI50 was inactive: 17.1 µM.
For `C/C=C/[C@H]1O[C@@](O)([C@@H](C)[C@H](O)[C@H](C)[C@H]2OC(=O)/C(OC)=C/C(C)=C/[C@@H](C)[C@@H](O)[C@@H](CC)[C@@H](O)[C@H](C)C/C(C)=C/C=C/[C@@H]2OC)C[C@H](OC2CC(O)C(O)C(C)O2)[C@@H]1C` (stereo partly specified), the GI50 was inactive: 3.18 µM.
In the case of `N#CC1N(C(=O)c2ccc(F)cc2)c2ccccc2N1C(=O)c1ccc(F)cc1`, the GI50 was inactive: > 100 µM.
As for `Brc1ccc(C2(N3CCCCC3)CCCCC2)s1`, the GI50 is inactive: > 100 µM.
In the case of `O=c1c2cc([N+](=O)[O-])ccc2oc2nc3n(c(=O)c12)CCCS3` it was inactive: > 100 µM; in that of `COC(=O)C1=C(c2cc(OC)c(OC)c(OC)c2)OC(c2ccc3c(c2)OCO3)C1` (stereo unspecified), inactive: > 100 µM.
Take `O=C(O)/C(Cl)=C(\Cl)Nc1cccc(C(F)(F)F)c1`: the GI50 is inactive: 17.1 µM.
As to `O=[N+]([O-])c1cccc(C2=NN(c3ccccc3)C[N+](c3ccc(Br)cc3)=N2)c1`, the GI50 was inactive: > 100 µM.
For `COC(=O)C1=C(OC)C(=P2(c3ccccc3)CC(c3ccccc3)=C2c2ccccc2)C(C(=O)OC)=C1C(=O)OC` (stereo unspecified), the GI50 is inactive: > 100 µM.
In the case of `Clc1ccc(Nc2nnc(CNc3ccc(-c4nnc(Nc5ccc(Cl)cc5)o4)cc3)o2)cc1` it was inactive: 26.4 µM.
On to `C=C1CC(CCCl)(c2ccccc2)OC1=O` (stereo unspecified), for which the GI50 is inactive: > 92.7 µM.
With `COc1cccc(C2SCC(=O)N2c2ccc(-c3ccc(-n4c(-c5ccccc5)nc5ccccc5c4=O)cc3)cc2)c1OC` (stereo unspecified) the figure was inactive: > 100 µM; with `O=C1CSC(=O)/C1=C\NNc1nc2ccccc2o1`, inactive: 25.6 µM.
With `CCN(CC)CCCNc1nncc2cc3c([nH]c4ccc(OC)cc43)c(C)c12` the figure was inactive: 3.08 µM; with `COc1ccc2nc3cc(Cl)ccc3c(NCCNC(=O)Cn3c(=O)n(C)c(=O)c4c3nc3c(c(=O)n(C)c(=O)n3C)[n+]4[O-])c2c1`, inactive: 37 µM.
`N#Cc1c(-c2ccccc2)[nH]c2ccc(Cl)cc2c1=O`: the GI50 is inactive: > 100 µM.
On to `CCCN(CCCN)/[N+]([O-])=N\O`, for which the GI50 was inactive: > 100 µM.
With `CN(C(=O)C12C3C4C1C1C2C3C41C#N)C(C)(C)C` (stereo unspecified), the GI50 is inactive: > 100 µM.
For the compound `COc1ccc(C(O)CC(O)(C(F)(F)F)C(F)(F)F)cc1` (stereo unspecified), the GI50 was inactive: 42.8 µM.
With `Fc1ccc2c(c1)cc1ccc3cccc4ccc2c1c34`, the GI50 is inactive: > 100 µM.
With `CC(C)(c1ccc(C=O)o1)c1ccc(C(C)(C)c2ccc(C=O)o2)o1` the figure was inactive: > 100 µM.
Regarding `CC[C@@]1(OC(=O)CCC(=O)O)C(=O)OCc2c1cc1n(c2=O)Cc2cc3ccccc3nc2-1`, the GI50 is active: 0.532 µM.
Consider `CC1(C)CCCC2(C)[C@@H]1CC[C@@]13CC(=O)[C@@](C)(CC[C@@H]21)C3` (stereo partly specified), for which the GI50 is inactive: > 100 µM.
With `CN(N=O)C(=O)ON1C(=O)CCC1=O` the figure was inactive: > 100 µM; with `OCC1OC(n2cnc3c2NC=NC[C@H]3O)C(O)C1O` (stereo partly specified), inactive: 379 µM; with `COc1ccccc1N1CCN(Cn2c(=O)oc3cccnc32)CC1`, inactive: > 100 µM.
